# Among all 310,000 compounds or so, about 2,200 (0.71%) showed an effect of 50% or more. Effects have a minus sign here. The list shows a part of the results.
# Biological target: human ether-à-go-go-related gene (hERG) potassium channel (human, UniProt Q12809)
# Test: primary screen, population patch clamp on CHO cells stably expressing hERG
# human ether-à-go-go-related gene (hERG) potassium channel, sequence (Q12809 whole entry, looked up): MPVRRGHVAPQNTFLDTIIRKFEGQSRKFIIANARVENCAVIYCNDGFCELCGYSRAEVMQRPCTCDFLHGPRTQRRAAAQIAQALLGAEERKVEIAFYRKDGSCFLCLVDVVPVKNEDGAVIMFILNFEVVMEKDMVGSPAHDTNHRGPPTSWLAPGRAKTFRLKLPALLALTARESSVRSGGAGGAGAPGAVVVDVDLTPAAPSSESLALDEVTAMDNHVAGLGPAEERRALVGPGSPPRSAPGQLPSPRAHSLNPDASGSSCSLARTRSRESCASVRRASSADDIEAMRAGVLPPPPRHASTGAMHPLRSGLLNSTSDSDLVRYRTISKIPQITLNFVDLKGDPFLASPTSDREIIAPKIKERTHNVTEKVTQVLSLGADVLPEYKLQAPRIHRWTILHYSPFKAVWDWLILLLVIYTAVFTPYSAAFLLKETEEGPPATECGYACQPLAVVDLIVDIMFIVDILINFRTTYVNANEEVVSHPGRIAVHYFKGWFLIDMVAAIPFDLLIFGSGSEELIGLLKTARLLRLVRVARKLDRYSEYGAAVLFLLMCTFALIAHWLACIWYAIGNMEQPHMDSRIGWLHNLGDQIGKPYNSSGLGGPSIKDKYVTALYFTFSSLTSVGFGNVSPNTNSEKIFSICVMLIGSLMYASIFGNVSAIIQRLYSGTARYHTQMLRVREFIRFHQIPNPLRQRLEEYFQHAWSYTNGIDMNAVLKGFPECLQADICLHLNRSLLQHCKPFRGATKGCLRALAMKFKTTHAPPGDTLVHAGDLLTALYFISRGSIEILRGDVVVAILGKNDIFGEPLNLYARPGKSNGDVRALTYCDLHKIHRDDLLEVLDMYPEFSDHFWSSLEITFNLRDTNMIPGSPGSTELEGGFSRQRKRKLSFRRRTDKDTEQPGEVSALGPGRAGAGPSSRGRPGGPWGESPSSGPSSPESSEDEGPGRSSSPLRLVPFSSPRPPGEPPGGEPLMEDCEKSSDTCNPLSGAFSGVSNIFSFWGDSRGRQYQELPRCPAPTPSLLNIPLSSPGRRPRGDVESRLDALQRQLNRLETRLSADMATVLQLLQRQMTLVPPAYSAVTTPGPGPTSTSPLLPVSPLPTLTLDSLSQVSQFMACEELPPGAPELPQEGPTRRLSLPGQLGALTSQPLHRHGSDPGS
row,SMILES,"hERG current change (%, negative = inhibition) at 1uM [%]"
1,CCC(=O)N/N=C(\C)CC(=O)Nc1ccc2ccccc2c1,16.8
2,N#Cc1nc(-c2ccccc2Cl)oc1N1CCCCC1,5.73
3,CC1CCN(S(=O)(=O)c2ccc([N+](=O)[O-])cc2)CC1,10.6
4,Cc1ccc(S(=O)(=O)N2CCC(C(=O)NC3CCCC3)CC2)cc1Cl,9.67
5,CN(C)CCCNC(=O)C(=O)Nc1cc2c3c(c1)CC(=O)N3CCC2,15.7
6,O=C(O)C(NS(=O)(=O)c1ccc(F)cc1)c1ccccc1 (stereo not drawn),10.7
7,O=C(NCCN1CCOCC1)c1ccc(NS(=O)(=O)c2cccc([N+](=O)[O-])c2)cc1,4.59
8,Cc1c(Cl)cnc(NC(=O)COC(=O)c2ccc([N+](=O)[O-])s2)c1Cl,6.35
9,Clc1cccc2sc(N3CCCC3)nc12,10.6
10,Cc1nn2c3c(cnc2c1-c1ccc(Cl)cc1)C(=O)CC(c1ccco1)C3 (stereo not drawn),7.8
11,COc1ccc(NC(=O)Nc2ncccc2C)cc1,11.6
12,Cc1cc(CNC(=O)c2ccc(C)c([N+](=O)[O-])c2)c2ccccc2n1,5.88
13,O=C1NCCN1C(=O)c1cccc(Cl)c1,7.64
14,Cc1ccc(NC(=O)C2CC2C)c(Cl)c1 (stereo not drawn),12.5
15,O=C(CSc1nc2cc(Cl)c(Cl)cc2[nH]1)c1ccc2c(c1)OCO2,10.5
16,Cl.OCCNCc1cc(Br)ccc1OCc1ccccc1Cl,-1.56
17,COc1ccc(C(=O)C[n+]2ccc(N(C)C)cc2)cc1.[Cl-],16.6
18,CCC(Sc1ncnc2c1nnn2-c1ccc(F)cc1)C(=O)OC (stereo not drawn),-12.7
19,CC(C)c1nc(SCC(=O)N2CCCCCC2)c2c(=O)n(C)c(=O)n(C)c2n1,5.76
20,COc1ccccc1/C=C/CN1CCC(Oc2ccc(C(=O)N3CCCC3)cc2)CC1,10.1
21,O=C(NC1CCCCC1)N1CCc2[nH]c3ccccc3c2C1,4.23
22,Cc1ccc(C)c(N2CCN(c3ccc([N+](=O)[O-])cn3)CC2)c1,10.6
23,O=C(NCCc1c[nH]c2ccccc12)c1ccc2nc[nH]c2c1,1.35

row,SMILES,"hERG current change (%, negative = inhibition) at 1uM [%]"
1,CCOC(=O)c1cc(-c2ccccc2)sc1NC(=S)Nc1cc(C)ccn1,19.2
2,COc1ccc(Cl)cc1Nc1nc(-c2sc(NC(=O)c3ccco3)nc2C)cs1,20
3,Cc1nc(-c2ccc(C(=O)NCCO)cc2)cs1,15.3
4,COc1ccccc1N(CC(=O)NC(C)(C)C)C(=O)CCC(=O)Nc1nccs1,4.31
5,CC(C)C[C@@H]1NC(=O)[C@H](Cc2ccc(O)cc2)NC(=O)c2cc([N+](=O)[O-])cc(I)c2NCCC[C@@H](C(N)=O)NC1=O,-11.3
6,Cc1ccc(S(=O)(=O)Nc2c(C)ccc3nsnc23)cc1,5.24
7,CC(C)CN1CCNC(=O)C1CC(=O)N(C)CC1CCOCC1 (stereo not drawn),3.82
8,C/C(=N/NS(=O)(=O)c1ccc(Br)cc1)c1ccc(C)o1,7.12
9,CN(C)C(CNC(=O)CNC(=O)c1ccc2ccccc2c1)c1ccccc1 (stereo not drawn),5.17
10,COc1ccc(NC(=O)Nc2cccc(C)n2)c(OC)c1,6.74
11,Cc1ccc(/C=N/NC(=O)CNC(=O)c2ccc(S(=O)(=O)N3CCCC3)cc2)o1,0.995
12,COc1ccc(C2=NN(C(C#N)c3ccc(OC)c(OC)c3)C(c3ccccc3)C2)cc1 (stereo not drawn),12
13,Cc1ccccc1S(=O)(=O)/N=C(/c1ccccc1)N1CCOCC1,10.5
14,Cc1ccc(-c2nnc3ccc(SCC(=O)N4CCc5ccccc54)nn23)cc1,1.12
15,COc1ccc(CCNC(=O)C(=O)NCC2CCCN2S(=O)(=O)c2ccccc2)cc1OC (stereo not drawn),-0.655
16,c1csc(-c2nnc3ccccn23)c1,2.75
17,CCNc1nc(N)nc(-c2cc(Cl)ccc2OC)n1,10.8
18,O=S(=O)(Nc1ccccc1OC(F)F)c1ccc(S(=O)(=O)N2CCCC2)cc1,-3.33
19,COCCc1ncc(CN2CCCC(C(=O)Nc3cccc(-c4cccc(C)c4)c3)C2)cn1 (stereo not drawn),-1.25
20,COc1cc(OC)cc(C(=O)NCC2CCCN(Cc3cccc(C(C)=O)c3)C2)c1 (stereo not drawn),-0.745
21,Cc1cc(Nc2ccc(C)c(Br)c2)n2nc(C)nc2n1,1.5
22,COc1ccc(OC)c(C2=NOC(C(=O)Nc3cccc(C(C)=O)c3)C2)c1 (stereo not drawn),-3.07
23,Cc1ccc(OCC(=O)Nc2ccc(NC(=O)c3ccco3)cc2)c(C)c1,13.2

row,SMILES,"hERG current change (%, negative = inhibition) at 1uM [%]"
1,CCN(CC)C(=O)N1CCN(C(=O)N(CC)CC)CC1,11.7
2,COc1ccc(-c2[nH]n(-c3ccc([N+](=O)[O-])cc3)c(=O)c2C=NCC2CCCO2)cc1 (stereo not drawn),18
3,O=C(CCc1ccccc1)Nc1ccc2c(c1)OCCO2,-7.3
4,Cc1nnc(SCc2nc3ccccc3s2)n1N,6.13
5,Cc1sc2nc(CSC(C)C(=O)Nc3ccc(Cl)cn3)[nH]c(=O)c2c1C (stereo not drawn),6.64
6,CCOC(=O)C1(CC2CC2)CCN(Cc2ccc3cccc(F)c3n2)CC1,-11.8
7,CC(C)c1c(C(=O)N/N=C/c2cccs2)nnn1-c1nonc1N,17.7
8,CC12CC3CC(C)(C1)CC(C(=O)NCc1ccco1)(C3)C2,3.95
9,CC(O)c1c(-c2ccccc2)nn(C)c1Cl (stereo not drawn),16.2
10,COc1ccc(Cl)cc1NC(=O)CNc1ccccc1F,7.66
11,COC1CCN(C(=O)c2ccc(OC3CCN(CCc4ccccc4)CC3)cc2)CC1,3.97
12,FC(F)(F)c1cc(-c2ccc3c(c2)OCO3)nc(NCc2ccco2)n1,9.63
13,CCc1nnc(NC(=O)C2CCCN2S(=O)(=O)c2ccc(F)cc2)s1 (stereo not drawn),7.55
14,CCCCC(CC)Cn1c(N)c(C#N)c2nc3ccccc3nc21 (stereo not drawn),10.6
15,O=C(Nc1nnc(C2CC2)s1)c1ccc(S(=O)(=O)c2ccccc2)cc1,17.8
16,CCOc1cc(C(=S)N2CCOCC2)ccc1OS(=O)(=O)c1ccccc1,5.08
17,COc1cccc(NC(=O)COC(=O)C2CC3CCCC(C2)C3=O)c1 (stereo not drawn),11.2
18,CC(C)OCCCNC(=S)NNC(=O)c1ccc(Cl)c(Cl)c1,2.42
19,CN(c1ccccc1)S(=O)(=O)c1ccc(Cl)c(C(=O)Nc2nn[nH]n2)c1,30
20,CCCCNc1nc2ccccc2nc1Cl,10.7
21,Oc1ccc2ccccc2c1C=Nc1ccccc1,6.51
22,Cc1cc(C)n(-c2nc3ccccc3nc2N2CCN(S(=O)(=O)c3cccc(C#N)c3)CC2)n1,11.5
23,CCN(CC)C(=O)Cn1c(=O)n(Cc2ccccc2Cl)c2c1c(=O)n(C)c(=O)n2C,8.59

row,SMILES,"hERG current change (%, negative = inhibition) at 1uM [%]"
1,Cc1ccsc1/C=N/N1CCOCC1,16.1
2,CN(CCOc1ccccc1)C(=S)Nc1ccc(OC(F)F)cc1,-1.74
3,Cc1ccc(Cc2cnc(N)s2)o1,9.87
4,C=C(C)COc1ccc(-c2[nH]ncc2-c2ccccc2)c(O)c1,13.2
5,Cc1cc(C)c(C)c(S(=O)(=O)N2CCCCC2C(=O)O)c1C (stereo not drawn),5.77
6,CCN(CC)CCN1C(=O)C(=O)/C(=C(/O)c2ccc(S(=O)(=O)N3CCOCC3)cc2)C1c1ccc(C(C)C)cc1 (stereo not drawn),13.5
7,Cc1cc(C(=O)CSc2nnnn2C)c(C)n1C1CC1,13
8,Cc1ccc(N2C(=O)N(CC(=O)Nc3cc(Cl)ccc3C)C(=O)C2C)cc1 (stereo not drawn),9.37
9,COC(=O)N1C(=O)[C@@](c2ccccc2)(C(C)C)N1C(=O)OC,14.6
10,CN(C)CCNc1ncnc2ccccc12.Cl,8.87
11,O=C(NNC(=O)c1cccs1)c1ccc(Cl)c([N+](=O)[O-])c1,5.54
12,Cn1cccc1CC(=O)N/N=C/c1ccc(Cl)c([N+](=O)[O-])c1,7.42
13,Cc1ccc(-c2nn(CC(=O)NN3CCOCC3)c(=O)c3ccccc23)cc1,9.85
14,CSCCC(NC(=O)c1cccc(C)c1)C(=O)OCC(=O)NC(=O)c1cccn1C (stereo not drawn),7.19
15,O=C(Nc1cccc(Br)c1)C1CCCC1,20.4
16,CCSC1=N/C(=C\C=C2/Oc3ccccc3N2CC)C(=O)S1,18.1
17,COc1ccc(N2CC(C(=O)Nc3nc4ccc(OC)cc4s3)CC2=O)cc1 (stereo not drawn),6.71
18,Cc1ccc(C(OC(=O)c2ccco2)C(=O)NC(C)(C)C)cc1 (stereo not drawn),11.9
19,Cc1ccc(S(=O)(=O)N2CCOCC2)cc1NC(=O)CSc1cccc[n+]1[O-],-0.851
20,Cc1cccc(C)c1NC(=O)c1cccc(COc2cc(Cl)ccc2Cl)c1,12.4
21,CCCCNC(=O)[C@]1(C)CCC[C@@]2(C)C3CC[C@@]4(C)C[C@]3(CCC21)CC4=O (stereo partly drawn),7.77
